According to US7097990B2, “Method of screening cell death inhibitor” (Astellas Pharma Inc., priority 2001, dated 2006):

Key:
[1] = tested on: MIN6B cell expressing human LTRPC2 protein; assay: MTT Assay: cell death by streptozotocin stimulation in MIN6B cells expressing human LTRPC2 protein; type: cell-based; details: streptozotocin 1 mM, overnight
[2] = tested on: human LTRPC2 protein; details: for 86Rb+ residual activity: DPQ 100 μmol/liter, 3-aminobenzamide 1 mmol/liter, nicotinamide 1 mmol/liter, versus control without activator; for IC50: read-out: IC50 value of the human LTRPC2 protein inhibition, method of Example 7, varied amounts of the inhibitors
[3] = tested on: human LTRPC2 protein; type: cell-based; details: H2O2 0.06%
Experimental: In this case, the aforementioned operation was carried out in accordance with the protocol attached to the aforementioned reagent for transfection and the known method (reference 1).
Activation of LTRPC2 in the thus obtained transformed cells (1.6×10^5 cells) was measured using a method measuring efflux of Rb^+ ion. The method was carried out in the same manner as in Example 6. In this case, however, H2O2 (final concentration=0.06%) was used as the PARP activator, and cells in which the LTRPC2 protein alone obtained in Example 5 was expressed were used as the control.

[4] = in the presence of MNNG 1 mmol/liter

CN(N=O)C(=O)N[C@H]1C(O)O[C@H](CO)[C@@H](O)[C@@H]1O (mixture of isomers) [streptozotocin]
absorbance in LTRPC2-expressing cells in comparison with vector-alone cells [1]: 93%

NC(=O)c1cccc(N)c1 [3-aminobenzamide]
86Rb+ residual activity ([2]; in the presence of H2O2 0.06%): 91.9% | 86Rb+ residual activity [2, 4]: 96.2% | IC50 [2]: 117 µM

O=C1NCCc2c(OCCCCN3CCCCC3)cccc21 [DPQ, 3,4-dihydro-5-[4-(1-piperidinyl)butoxy]-1(2H)-isoquinolinone]
86Rb+ residual activity ([2]; in the presence of H2O2 0.06%): 93.4% | 86Rb+ residual activity [2, 4]: 95.5% | IC50 [2]: 0.2 µM

NC(=O)c1cccnc1 [nicotinamide]
86Rb+ residual activity ([2]; in the presence of H2O2 0.06%): 57.8% | 86Rb+ residual activity [2, 4]: 95.9% | IC50 [2]: 541 µM

PARP-1 dominant negative mutant: human PARP-1 DNA binding region (positions 1 to 374), amino acid sequence SEQ ID NO:20, co-expressed in cells
residual activity of 86Rb+ in comparison with control cells not expressing the mutant [3]: significantly increased

Like-named read-outs stand apart in the source and are kept apart here.
